The supplement of paper PMC10126150
Sequences with one replicate were seen in a single cluster, so their values are uncertain.

system: ATP; assay: switch fluorescence ratio, 500 uM ATP over buffer (Cy3 cluster intensity, sum of 5 cycles each) (fold (ratio)); higher = stronger signal-on switching upon ATP binding; sequences stand for … in TCGTCGGCAGCGTCAGATGTGTATAAGAGACAGTTTTTTTTTTTTTTTTTTTTTTTTT…TC; conditions: aptamer strand: ATP DNA aptamer (quencher-CACCTGGGGGAGTATTGCGGAGGAAGG + anchor), 100 nM annealed; ATP concentration: 500 uM; one replicate
Summary of the method: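 Five buffer/ATP imaging cycles were run on Cy3-labelled switching-strand clusters on a modified Illumina MiSeq flow-cell, with NaOH stripping and re-annealing between cycles. In each cycle, clusters annealed to 100 nM quencher-labelled ATP aptamer were imaged in selection buffer, then after 15 min with 500 uM ATP at 22 °C. Per cluster, the fluorescence ratio is summed target-cycle over summed buffer-cycle Cy3 intensity, averaged per switch-domain sequence. Only clusters within 100-1000 RFU were kept.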
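Also: ATP exposure 15 min at 22 °C before imaging.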

Sequence | switch fluorescence ratio
TAAATTGGGT | 1
GGTAACCAGG | 1.21
ACCTATCTAG | 1.03
AGAAGAAGG | 1.05
TACTTATAAA | 1.03
GCCGAAGCT | 1.03
TGTATCTAGT | 0.992
GAAAGAAGGT | 1.08
GAATATGGTG | 1.01
ATCATAGATG | 1.02
GCGGGTACGT | 0.988
ACGAATATT | 1.04
GCTTGA | 0.998
TGGAACCAGC | 1.03
CTAGCCGCCA | 1.19
AGACATAAAA | 1.01
GGCCACTTAG | 1.01
GAAAGGTA | 1.04
GTGTTGAGAG | 1
GGAGGTGACG | 0.945
CGCTGGCGAT | 1
GCGCCCCGTC | 1.02
AACCTTATAC | 1.54
ACCTAGTGCT | 1.03
ATCGGGCCCG | 1
GCGGCTAATA | 1.02

Sequence | switch fluorescence ratio
ACAGGCCACA | 1.07
TGAGGGGACG | 1.16
GACCGATTTA | 0.993
GGGCCCTGTA | 0.924
TGGGCTTTGA | 0.983
GTGATTTTTA | 0.994
AGGTGGGCCT | 1.06
TTGTTCCAGG | 1.28
GGTGTCTTCT | 0.969
ATGAACACTT | 1.04
AGATCCCACG | 1.06
CACTACCGAA | 1.03
GCATGGTTGC | 0.996
CTAAGGGGGC | 0.984
ATTGGCGCCT | 1.05
AAGGCTTGAG | 0.962
CTTTTAGAC | 0.889
CCAGGATGAA | 1.07
GAAAACAAGA | 0.927
TAAGTGCTCA | 0.979
CCCGTTGCAC | 1.41
GACGCGGCAT | 1.03
CTTCACCCAG | 1.76
CACTGGTGAC | 1.03
CCGGTTTTGG | 0.968
AACCCTTCGA | 1.15

Sequence | switch fluorescence ratio
CTGAAGTGCA | 1.05
TTCAGTTTTC | 1.08
GAAGTTGCAG | 1.01
CGGGAAAGGG | 1.04
AACGCAGTGA | 0.995
ATGTAAGGAT | 1.07
GGTAAACGAC | 1.04
AGGTTTACTT | 1.03
ATTAGCCCGA | 1.02
TAGGTACACC | 1.06
GCGTCCCAGC | 0.934
TTCGTGCTCT | 0.998
CTATGGGTTC | 1
CCCATGATGC | 1.33
AAATCCGCTC | 2.11
TCCCTCCCTT | 1.16
GTTGGCAGGT | 0.99
GTGTTGATTA | 1.05
TATCCGCCCG | 1.2
GGTGAGGGTT | 0.996
CCTGGCTAGG | 1.01
TCTAAGATTA | 1.07
CTAGGTCCAT | 1.01
AATAATAGAG | 0.953
TCAAGTTTCT | 0.999
AGGGTGTAGT | 0.994

Sequence | switch fluorescence ratio
GGCATAGG | 1.06
CTTTTCGGAT | 0.997
TCCTGCATCA | 1.12
CAGCTTGTGC | 1.01
TTACGGGCAG | 0.994
ATGTTTGTG | 0.963
CACACGCTCT | 1.04
CTCGGCAGAA | 2.34
TGCAGTTATT | 0.985
GGGCAGAAGG | 1.01
GATAGAGCTA | 0.992
TCCAGTTTGC | 1.01
AGATAGAATA | 0.915
ACGCCAGACA | 1.26
CCGAGTTCGC | 1.19
CAAGGCCAGC | 1.01
AAGCGGTACG | 1.06
GGGTAATGT | 1.02
GCTCCAAGGT | 1.27
AGATCACGGC | 0.988
TACTCTGTAT | 1.11
AACTGGCGAG | 1.03
GACCTAGGCC | 1.02
GTAAGCCAGC | 1.01
GGCGCCACG | 0.967
ATGATCTAAT | 0.964

Sequence | switch fluorescence ratio
CGCCCTTCTT | 1.06
CAGTTAGAGC | 1.02
TGCGATTACA | 1.02
TAACATGGGA | 1.01
GGGTATTGAC | 1.01
GAGAGGACGC | 0.994
GCTTGTGCAC | 0.947
CTACCGTCCT | 1.11
TTCCGGACCC | 1.08
TGCTGGGAGG | 0.971
CCTGGTGTGG | 0.998
GATACGCAGG | 1.04
CTAGGCAGCA | 1.02
AGCGTCGACC | 0.992
AGAGGAGTCG | 0.994
GACCTTCTGT | 1.11
GAATTTGGAG | 1.01
CGGAATCGCT | 1.03
ACCCATTTGC | 0.958
AAAGGTGCCG | 0.991
GCTTGAGATA | 1.06
AGAACAGGGT | 1.05
CTTTTCCCGT | 0.993
TTCGCGGTGG | 0.871
CGTAGGGCAT | 1.02
TCAGCAACA | 1.25

Sequence | switch fluorescence ratio
AGTGGTGACC | 0.988
TGCCGCTATA | 3.07
ATTTGCCACA | 1.03
AAAGCGCGAG | 0.994
TTCCGGAAGC | 2.94
CCGGCAGGCA | 1.04
GGGATGTGAT | 0.995
GCTGGATTG | 0.983
GTAGCTCAGT | 1
ATATTTCCGC | 1.05
GCCTGCCGGC | 1.05
AGCTACGTGA | 1.13
TTTGCACCCA | 1.19
AGAGGAGAAG | 0.975
ATAGTCAGT | 1.01
CCGGCAACTA | 2.93
GGTAACTAC | 1.06
ATAGTCACAA | 1.01
TGCAGTACGC | 1.41
TTATGCTTCA | 1.04
TTAAATATCA | 0.977
TAAACTCGC | 1.02
GCCGGGT | 1.14
GGGCACGCGG | 0.966
TATTAGGAAT | 0.999
TGGGCAGTCA | 1.05

Sequence | switch fluorescence ratio
CCACGGCATT | 1.99
TGCATGCTTG | 0.982
CTGAAAATAC | 1.81
GAATTGGGTT | 1.02
GTATCTAAGT | 1.02
TGGCGATTT | 1.03
TACGAAACGA | 1.17
CGCGTGAGGC | 1.1
CAATCTCCTC | 1.21
CTATTGGGTA | 1.04
TATAAGGACG | 0.955
GCCTGTGCGC | 1.07
TCTGCCATCT | 0.961
AAATGTCTGG | 0.953
TCTTAACTAC | 1.08
CTAAGCTTGG | 1.06
ATTTTGTAGC | 1.57
GATGTGGCTG | 1.06
CTAACAGTAT | 1.01
CGGCTCCATC | 1.08
GCGATTAAAA | 0.988
TGGCGGAAGT | 0.972
GCCGAGTAGG | 1
TTATAATGAC | 0.931
GGTTCAGGTC | 0.992
TTGCGAAGAG | 1.06

Sequence | switch fluorescence ratio
CGACGCCTAT | 3.66
CCTGTGGGGA | 1
TCTTTATGCA | 1.13
GGGCACGGTC | 1.05
TGCCAGAGTA | 1.01
CGTGCTAGGA | 1.01
AGTTTGCCT | 1.02
GACCAGGGGC | 1.42
TTTACTTTTA | 1.01
CAGTAGTCGT | 0.98
AAAGAGTGGA | 0.993
TTGCGATTGC | 1.1
GTGATTTTAA | 0.972
TCTTACTCAT | 1.03
CTTAATAAAA | 1.03
GTATTATATA | 0.979
TTAACCATAG | 0.976
TTCTCATTAT | 0.998
TTATGTCTAA | 1.02
